From PMC4336329 (PLoS ONE, 2015)
Hit rate of the full screen: of about 310,000 compounds, about 14,000 (4.5%) showed an effect of 50% or more. Effects have a minus sign here. The list shows a part of the results.

What follows are compounds tested against human ether-à-go-go-related gene (hERG) potassium channel (human, UniProt Q12809) (assay: primary screen, population patch clamp on CHO cells stably expressing hERG).
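Note: peak tail current of the secondary pulse compared with the same well before compound.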

Sequence of human ether-à-go-go-related gene (hERG) potassium channel (Q12809 whole entry, looked up): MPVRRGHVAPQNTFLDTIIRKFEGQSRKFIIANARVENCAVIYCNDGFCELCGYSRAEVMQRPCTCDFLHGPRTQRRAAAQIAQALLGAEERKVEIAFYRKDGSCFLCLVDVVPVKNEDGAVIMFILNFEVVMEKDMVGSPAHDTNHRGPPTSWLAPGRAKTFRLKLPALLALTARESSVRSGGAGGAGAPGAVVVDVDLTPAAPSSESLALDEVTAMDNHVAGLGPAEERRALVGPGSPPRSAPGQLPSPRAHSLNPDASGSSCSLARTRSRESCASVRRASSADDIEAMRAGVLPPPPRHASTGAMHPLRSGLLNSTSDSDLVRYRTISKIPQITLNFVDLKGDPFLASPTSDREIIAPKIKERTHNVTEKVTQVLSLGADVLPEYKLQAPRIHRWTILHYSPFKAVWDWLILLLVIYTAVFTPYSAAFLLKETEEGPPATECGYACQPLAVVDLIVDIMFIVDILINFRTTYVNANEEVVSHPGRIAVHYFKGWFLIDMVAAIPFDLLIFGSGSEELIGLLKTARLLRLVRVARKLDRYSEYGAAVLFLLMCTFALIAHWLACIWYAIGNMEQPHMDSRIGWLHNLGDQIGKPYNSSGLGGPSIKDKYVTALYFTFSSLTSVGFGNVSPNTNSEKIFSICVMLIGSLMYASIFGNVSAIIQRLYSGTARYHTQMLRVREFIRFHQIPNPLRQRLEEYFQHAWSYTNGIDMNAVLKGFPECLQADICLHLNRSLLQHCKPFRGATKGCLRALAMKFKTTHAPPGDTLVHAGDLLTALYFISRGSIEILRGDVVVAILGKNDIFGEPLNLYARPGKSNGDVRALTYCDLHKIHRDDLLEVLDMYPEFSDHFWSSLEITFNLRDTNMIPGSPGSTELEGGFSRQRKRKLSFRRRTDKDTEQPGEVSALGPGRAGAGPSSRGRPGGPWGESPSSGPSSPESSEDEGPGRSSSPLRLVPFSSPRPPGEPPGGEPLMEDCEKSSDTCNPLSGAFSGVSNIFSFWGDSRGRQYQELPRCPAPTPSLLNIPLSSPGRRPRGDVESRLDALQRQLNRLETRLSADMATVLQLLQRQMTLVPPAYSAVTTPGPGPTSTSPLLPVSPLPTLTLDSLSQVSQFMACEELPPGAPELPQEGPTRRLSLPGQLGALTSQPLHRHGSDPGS

Row | Compound | hERG current change (%, negative = inhibition) at 10uM [%]
1 | COc1ccc2c(CC(=O)NC3CCCc4ccccc43)coc2c1 (centres unmarked) | -9.56
2 | O=C(N/N=C/c1ccoc1)c1ccccc1F | 16.1
3 | O=C(COC(=O)c1cc(Cl)ccc1O)Nc1ccc2c(c1)OCCO2 | 7.8
4 | CCCCC(=O)N1CC2(C)CN(C(=O)CCCC)CC(C)(C1)C2=O | -27.4
5 | Cc1nn(Cc2ccc(Cl)cc2)c(C)c1NC(=O)c1noc2c1CCc1ccccc1-2 | -9.78
6 | COc1cc(C(=O)Nc2sc3c(c2C(=O)O)CCC(C)C3)cc(OC)c1OC (centres unmarked) | 18.9
7 | Cc1ccc(/C=N/NC(=O)c2ccncc2)s1 | 19.7
8 | NC(=O)CC1SC(N)=NC1=O (centres unmarked) | -12.4
9 | CC(C)Cn1cc(C(=O)N2CCOCC2)c2c3ccccc3n(C)c2c1=O | -39.4
10 | CC(C)CN1C(=O)C(=O)N(CC(=O)N(C)CC(=O)Nc2ccc(Cl)c(C(F)(F)F)c2)C1=O | -12.3
11 | CC1CCN(C(=O)c2cc3c(=O)n4ccccc4nc3s2)CC1 | 18.7
12 | CCOC(=O)C1(CCc2ccccc2)CCN(Cc2ccn[nH]2)CC1 | -72.5
13 | Cc1ccc(-c2cc(N)nc(-c3ccccc3)c2)cc1 | 7.26
14 | Cc1ccc(CNC(=O)C(=O)c2cn(CC(=O)N3CCCC3)c3ccccc23)cc1 | 8.02
15 | Cc1ccc(CN2C(=O)CSC2c2ccc(F)cc2)cc1 (centres unmarked) | -3.99
16 | CCOC(=O)C1CCN(Cc2ccc(F)cc2F)CC1 | 6.65
17 | CCCC(=O)Nc1nnc(S(=O)(=O)N2CCCC2)s1 | 10.3
18 | O=C1/C(=C\c2ccc([N+](=O)[O-])cc2)N2CCC1CC2 | -37.1
19 | COc1ccc(NS(=O)(=O)c2cccc(C(=O)NNC(=O)CNC(=O)c3ccco3)c2)cc1 | 12.8
20 | COc1ccc(-c2ccc(/C=C(\NC(=O)c3ccccc3)C(=O)N3CCOCC3)o2)cc1 | -24.1
21 | O=C(CCn1c2c(c3ccccc31)CCCC2)NNC(=O)c1cccc([N+](=O)[O-])c1 | -2.35
22 | O=c1o[nH]c(-c2ccccc2)c1C1=NCCCCC1 | -4.67

Row | Compound | hERG current change (%, negative = inhibition) at 10uM [%]
23 | CCN(CC)S(=O)(=O)c1ccc(NC(=O)c2ccccc2N(C)S(C)(=O)=O)cc1 | -8.8
24 | CC(=O)NNC(=O)c1csc(-c2csc(C)n2)n1 | 6.85
25 | COc1ccc(CCNS(=O)(=O)CC23CCC(CC2=O)C3(C)C)cc1OC (centres unmarked) | 10.6
26 | CN(CC(=O)Nc1ccc(F)c(F)c1F)C(=O)C1CC(=O)N(c2ccc3c(c2)OCCO3)C1 (centres unmarked) | -14.4
27 | COc1ccc(C(CC(=O)O)NC(=O)c2ccccc2)cc1OC (centres unmarked) | -3.86
28 | CCCOc1ccc(NC(=O)CC2C(=O)N(C)C(=S)N2Cc2cccs2)cc1 (centres unmarked) | -9.24
29 | C/C(N)=C(/C#N)C(=O)CSc1n[nH]c(-c2cccs2)n1 | 9.72
30 | O=C(COC(=O)c1ccc[nH]c1=O)NCC1CCCO1 (centres unmarked) | 8.98
31 | COC(=O)COc1ccc(C(c2c(C)[nH][nH]c2=O)c2c(C)[nH][nH]c2=O)cc1 | 15.1
32 | O=S(=O)(CCc1ccccc1)/N=C/c1cccs1 | 1.21
33 | COc1cc(/C=N/NC(=O)Cn2c([N+](=O)[O-])cnc2C)ccc1OC(=O)N(C)C | 12
34 | CCOc1ccc(NC(=O)CSc2nc3nc(C)cc(C)n3n2)cc1 | -4.89
35 | C/C(=N\NC(=O)C1CCCN(S(=O)(=O)c2ccccc2)C1)c1ccncc1 (centres unmarked) | -26.2
36 | O=C1c2ccccc2S(=O)(=O)N1CCOc1ccc(F)cc1 | -27.6
37 | Cc1c(CCOC(=O)C23CC4CC(CC(C4)C2)C3)sc[n+]1CC#N.[Cl-] | 6.74
38 | O=C(/C=C/c1ccc2c(c1)OCO2)NCCSCc1cccc(Cl)c1 | -14.5
39 | Cc1nc2ccccc2c2c1C(=O)N(C)C2=O | -24.2
40 | Cc1ccc(NC(=S)NNC(=S)Nc2ccc(C)cc2C)cc1 | 22.3
41 | Cc1c(Cl)c([N+](=O)[O-])nn1CCCC(=O)Nc1c(Cl)cccc1Cl | -8.29
42 | CCc1ccc2nc(N3CCN(C)CC3)c(C#N)cc2c1 | -54.3
43 | CCOC(=O)N1CCN(C(=O)c2ccc3oc(CCCc4ccccc4)nc3c2)CC1 | -47.5
44 | COc1ccccc1C1=NCc2nnc(CSC)n2-c2ccc(Cl)cc21 | -19.1
